Read counts are not given, so values of variants with three or more changes are uncertain.
B1: LINE1-full (parent)
chain: UACGUAGGUGGUUUUCCCCUGAUAGUGCUAAGGGGGCCUGGAAGUUUGGACUGGGCAGAGCUCAACACAGCGUGGCAAAGUGGCUGUGGCUAGACUGCCUCUCUGGAUUCCUCGUCACUCAGCAGGGCAUCUCUGAGAGAAAUGCC

Variants of: B1
Assay: self-cleavage, relative activity (ratio to wild type); higher = more cleavage; in vitro, sequencing; the parent is a self-cleaving ribozyme

| Variant | self-cleavage |
| --- | --- |
| UACGUAGGCGGUUUUCCCCUGAUAGUGCCAAGGGGGCCUGGAAGUUUGGACUGGGCUGAGCUCAACACAGCGUGGCAAAGUGGCUGUGGCUAGACUGCCUCUCUGGAUUCCUCGUCACUCAGCAGGGCAUCUCUGAGAGAAAUGCC | 0 |
| UACGUAGGCGGUUUUCCCCUGAUAGCGCUAAGGGGGCCUGGAAGUUUGGACUGGGCAGAGCCCAACACAGCGUGGCAAAGUGGCUGUGGCUAGACUGCCUCUCUGGAUUCCUCGUCUCUCAGCAGGGCAUCUCUGAGAGAAAUGCC | 0.13 |
| UACGUAGGCGGUUUUCCCCUGAUAGUGCUAAGGGGGCCGGGAUGUUUGGACUGGGCAGAGCUCAACACAGCGUGGCAGAGUGGCUGUGGCUAGACUGCCUCUCUGGAUUCCUCGUCACUCAGCAGGGCAUCUCUGAGAGAAAUGCC | 1.04 |
| UACGUAGGCGGUUUUCCCCUGAUAGGGCUAAGGGGGCCUGGAAAUUUGGACUGGGCAGAGCUCAACACAGCGUGGCAAAGUGGCUGUGGCUAGACUGCCUCUCUGGAUUCCUCGUCAUUCAGCAGAGCAUCUCUGAGAGGAAUGCC | 1.14 |
| UACGUAGGCGGUUUUCCCCUGAUAGGGCUAAGGGGGCCUGGAAGUUUGGACUGGGCAGAGCUCAACACAGCGUGGCAAUGUGGCUGUGGCUAGACUGCCUCUCUGGAUUCCUCGUCACUCAGCAGGGCAUCUCUGAGAGAAAUGCC | 1.6 |
| UACGUAGGCGGUUUUCCCCUGACAGUGCUAAGGGGGCCUGGAAGUCUGGACUGGGCAGAGCUCAUCACAGCGUGGCAAAGUGGCUGUGGCAAGACUGCCUCUCUGGAUUCCUCGCCACUCAGCAGGGCAUCUCUGAGAGAAAUGCC | 0 |
| UACGUAGGCGGUUUUCCCCUGAUAGUGCUAAGGGGGCCUGGAAGUUUGGACAGGGCAGAGCUCAACACAGCGUGGCAAUGUGGCUGUGGCUAGACUGCCUCUCUGGAUUCCUCGUCACUCAGCAGGGCAUCUCUGAGAGAAAUGCC | 1.56 |
| UACGUAGGCGGUUUCCCCCUGAUAGUGCUAAGGGGGCCUGGAAGUUUGGACUGGGCAGAGACCAACACAGCGUGGCAAAGUGGCUGUGGCUAGACUGCCUCUCUGGAUUCCUCGUCACUCAGCAGGGCAUCUCUGAGAGAAGUGCC | 0.28 |
| UACGUAGGCGGUUUUCCCCCGAUAGCGCUAAGGGGGCCUGGAAGUUUGGACUGGGCAGAGCUCAACACAGCGUGGCAAAGUGGCUGUGGCUAGACUGCCUCUCUGGAUUCCUCGUCACUCAGCAGGGCAUCUCUGCGAGAAAUGCC | 2.14 |
| UACGUAGGCGGUUUUCCCCUGAUAGUGCUAAGGGGGCCUGGAAGCUUGGACUGGGCAGAGCUCAACACAGCGUGGCAAAGUGGCUGUGGCUAGACUGCCUCUCUGGACUCCUAGUCACUCAGCAGGGCAUCUCUGGGAGAAAUGCC | 1.15 |
| UACGUAGGCGGUUUUCCCCCGAUAGCGCUAGGGGGGCCUGGAAGUUUGGACUGGGCAGAGCUCAACACAGCGUGGCAAAGUGGCUGUGGCUAGACUGCCUCUCUGGAUUCCUCGUCACUCAGCUGGGCAUCUCUGAGAGAAAUGCC | 0.84 |
| UACGUAGGCGGUUUUCCCCUGAUAGUGCUAAGGGGGCCAGGAAGUUUGGACAGGGCAGAGCUCAACACAGCGUGGCAAAGUGGCUGUGGCUAGACUGCCUCUCUGGAUUCCUCGUCACUCAGCAGGGCAUCUCUGAGAGAAAUGCC | 0.92 |
| UACGUAGGCGGUUUUCCCCUGAUAGUGCUAAGGGGGCCAGGAAGUUUGGACUGGGCAGAGCUCAACACAGCGCGGCAAAGUGGCUGUGGCUUGACUGCCUCUCUGGAUUCCUCGUCACUCAGCAGGGCAUCUCUGAGAGAGAUGCC | 0.77 |
| UACGUAGGCGGUUUUCCCCUGAUAGCGCUAAGGGGGCCUGGAAGUUUGGACUGGGCAGAGCUCAACACAGCGUGGCAAAGUGGCUGUGGCUAGACUGCCUCUCUGGAUUCCUCGCCACUCAGCAGGGCAUCUCUGAGAGAAAUGCC | 0 |
| UACGUAGGCGGUUUUCCCCUGAUAGUGCUAAGGGGGCCUGGAAGAUUGGACUGGGCAGUGCUCAACACAGCGUGGCAAAGUGGCUGUGGCUAGACUGCCUCUCUGGAUUCCUCGUCACUCAGCAGGGCAUCUCUGAGAGAAAUGCC | 0.38 |
| UACGUAGGCGGUUUUCCCCCGAUAUUGCUAAGGGGGCCUGGAAGUUUGGACUGGGCAGAGCUCAACACAGCGUGGCAAAGUGGCUGUGGCUAGACUGCCUCUCUGGAUUCCUCGUCACUCAGCAGGGCAUCUCUGAGAGAAAUGCC | 1.34 |
| UACGUAGGCGGUUUUCCCCGGAUAGUGCUAAGGGGGCCUGGAAGUUUGGACUGGGCAGAGCUCAACACAGCGAGGCAGAGUGGCUGUGGCUAGACUGCCUCUCUGGAUUCCUCGUCACCCAGCAGGGCAUCUCUGAGAGAAACGCC | 1.15 |
| UACGUAGGCGGUUUUCCCCUGAUAGUGCUAAGGGGGCCUGGAAGCUUGGACUGGGCCGAGCCCAACACAGCGUGGCAAAGUGGCUGUGGCUAGACUGCCUCUCUGGAUUCCUCGUCACUCAGCAGGGCAUCUCUGAGAGAAACGCC | 0 |
| UACGUAGGCGGUUUUCCCCUGAUAGAGCUAAGGGGGCCUGGAAGUUUGGACUGGGCAGAGCUCAACACAGCGUGGCAAAGUGGCUGUGGCUAGACUGCCUCUCUGGAUUCCUCGUCACUCAGCGGGGCAUCUCUGAGAGAAAUGCC | 0.97 |

Reference: the RNAGym collection of RNA variant scans (doi:10.7554/elife.90254)
